± gives the standard deviation of the averaged measurements. The list shows a part of the results.
Test system: PfAP2-EXP AP2 domain (GST-tagged)
Experiment: gcPBM binding intensity (ln(normalized median fluorescence intensity)); higher = stronger DNA binding
Summary of the method: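 GST-tagged P. falciparum DNA-binding domains produced in E. coli were incubated for 1 h on an Agilent 4 × 180k array of primer-extended double-stranded 36-bp intergenic genomic probes with negative controls. Binding intensity is the highest Masliner-normalised natural-log median intensity across replicate spots of either probe orientation, with bound protein detected by Alexa488 anti-GST antibody at 488 nm.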

Sequence	gcPBM binding intensity (ln)
TGTTCTTTTTATACTACACACTGATAAAAAAACAAA [CACACA_site3001]	8.63 ± 0.31
TATATTTACTTATGAAGTACATATATATATATATAT [XGTACX_site5069]	10.3 ± 0.21
TTTAAGTTTTTACTTTGTACGTATTATAATAAAATC [XGTACX_site5683]	8.48 ± 0.28
GGATTGATAAGTGGTACACACATATATATTATATAT [CACACA_site2866]	8.71 ± 0.3
GCATTGGGAATATATAGTACATATATATATATATAA [XGTACX_site2967]	8.55 ± 0.21
AAATATAAAAATAGCACACATATATACCTATATATA [CACACA_site4204]	8.37 ± 0.37
CAGACGCACGTATTTGCACACATTGCCACGTAATTA [CACACA_site3349]	8.82 ± 0.28
TTTTTCTTTTTCTTTTTTTCTTTTTTTTTTTTTTTC [GTGCAC_negctrl_site727]	8.32 ± 0.65
AACCATTCAACTGATGCATGCATTTAACATATAAAT [TGCATGCA_site961]	9.69 ± 0.23
TTAAAAAAAATTTCAAGTACAAAGTAATATATATAT [XGTACX_site5718]	9.34 ± 0.085
AAAAAAATTGGGAAAAGTACTTGCAGCTAGCTAAAA [XGTACX_site5178]	8.93 ± 0.52
AAACAAATATAATATTGTACATATATATATATATAT [XGTACX_site3105]	10.1 ± 0.41
GTTTTAAACAAAAATTGTACAATATAATCTTCCTAT [XGTACX_site2851]	8.57 ± 0.36
GGATGGAGTAGTTAAGCATAATAAATAAAATTATGT [CACACA_negctrl_site578]	8.46 ± 0.45
ATATATATATAATTTTGTACATAATAGCAATTCTAA [XGTACX_site653]	9.64 ± 0.071
CAAAACCTTTTATGTACACACATATACATCCCACTT [CACACA_site5716]	8.87 ± 0.31
AATAGCTAGCTGTGCACACAAACATATTTTCCAAAT [CACACA_site880]	8.87 ± 0.37
AACAACTATTAATTTACACACATGTATATATTTTAC [CACACA_site3116]	8.64 ± 0.42
AACAAAAAAAAAAAATGTACATATATATAATATATT [XGTACX_site3829]	8.4 ± 0.29

Sequence	gcPBM binding intensity (ln)
TCATTTCACAAACACACACACACAATATATTTCCTT [CACACA_site3905]	8.73 ± 0.49
CCACAAGCAGCGGAAACATGCATATGTTGAAATAAT [TGCATGCA_site610]	8.74 ± 0.33
TAATAATATTATTAATGTACAAATATATATACATAT [XGTACX_site7348]	8.37 ± 0.38
TATATATATATATATTGTACCCTTTTCAAACTTCTC [XGTACX_site2812]	9.92 ± 0.3
GTTAAGAATATGTGTACACATATACATAAATACATA [CACACA_site4254]	8.93 ± 0.4
ACCTCACAAATGAATACACACAAACATATATATTTA [CACACA_site4976]	8.73 ± 0.44
AATATCATCCTTTTTTTTTATAAAATTTAAAATATA [CACACA_negctrl_site844]	8.75 ± 0.86
TATAAGAGAATATATACACACAAAAATAAATACAGT [CACACA_site5000]	9.18 ± 0.2
ATTTTATGTTGAAAGTGTACGTATTAATATGTAGAA [XGTACX_site245]	8.79 ± 0.38
TATTTTATTATACCAAGTACAAAATTTAAATATGAA [XGTACX_site5478]	8.38 ± 0.36
TTTCACATATATATGGTGCATATTTTATGTGTAAAT [GTGCAC_site9937]	8.545 ± 0.035
TTTGTAACTTCTTTCACACATATATATATATATATA [CACACA_site5603]	10.3 ± 0.47
GTGTGCAAAAATTGTTGTACATTATATATAAAAAAA [XGTACX_site3246]	8.945 ± 0.035
TATATAATACAAAAGGGTACATTAACATATTATATA [XGTACX_site3196]	8.77 ± 0.57
CTATTATCGGTTCCTACACACAAATATAGATGTCTA [CACACA_site7651]	8.72 ± 0.35
TATTTGCAATATAACACACACAAAAAAAGACTCGGA [CACACA_site6891]	8.8 ± 0.59
CATATATATATATATTGTACACATTTTTTATAAAAA [XGTACX_site2526]	8.86 ± 0.19
TATATGTAATATATATGTACGTATAATATAATATTG [XGTACX_site8620]	8.49 ± 0.21
AATTATACATTATATTGTACATATGAATAATTAAAA [XGTACX_site6829]	8.15 ± 0.26

Sequence	gcPBM binding intensity (ln)
TATATATAAAGCAGTACACACATTTATTTTAGATAC [CACACA_site3387]	8.59 ± 0.3
AGTGATAATTTAAAAAGTACAAATGAAATTTAGCTA [XGTACX_site3375]	8.48 ± 0.38
AGAGAGAAAGCTATAACATGCAAAAATTTTTAGAAC [TGCATGCA_site420]	9.06 ± 0.48
ATACAAATAAAAAAAAAAATTATAAAATTATAAAAT [CACACA_negctrl_site914]	8.19 ± 0.41
AAAATGAACAAACACACACACATATATATATATATA [CACACA_site2403]	10.2 ± 0.44
AAAAATGTATGTATGGTGCAGTATTCATATCATTTT [GTGCAC_site9458]	8.67 ± 0.13
TTATTGTGTAAGATGATTTTCTTCGTCACTTTGAAA [CACACA_negctrl_site1814]	8.28 ± 0.57
TCTTGAAAAAGAATCAATCGGTCGACAAAAAAAAAA [CACACA_negctrl_site1099]	8.77 ± 0.44
GACAAATAATAAAAGGTGCATTATACTTAACAAAAA [GTGCAC_site9624]	9.05 ± 0.28
AAAAAACACTTAAGGTGTACCTTTTAATATAAGTAT [XGTACX_site2397]	8.38 ± 0.3
TTTTTTAATATTTATTAATTAAACTTTGTTTTTGTT [XGTACX_negctrl_site454]	8.03 ± 0.34
ATATTCTTGTTTAATACACACTGTAGTATTATAGAT [CACACA_site6341]	8.72 ± 0.46
TGGAGGATAGTTCACAGTACCCAGTAACTCTACGGA [XGTACX_site4930]	8.72 ± 0.53
AAAGTATAAATAAATACACACATATATATATATATA [CACACA_site2892]	10 ± 0.29
AACCATAACTCATATGCACACATAAATATTACATAT [CACACA_site9273]	8.67 ± 0.3
TACATTCGGAGTAAAAAAAAATTTATACAATTACTT [XGTACX_negctrl_site29]	8.21 ± 0.38
GTAAAAAAAAAAAAAAGTACATTATACATATATTTA [XGTACX_site5447]	8.05 ± 0.38
TGTGTATATAAATAATGTACATATATATTTTTTTAT [XGTACX_site7341]	8.37 ± 0.29
